# Measured values published in ChEMBL document CHEMBL4888484, “Replenishing the malaria drug discovery pipeline: Screening and hit evaluation of the MMV Hit Generation Library 1 (HGL1) against asexual blood stage Plasmodium falciparum ,using a nano luciferase reporter read-out” (2022).
# Hit rate of the full screen: of about 150,000 compounds, about 540 (0.36%) showed an effect of 50% or more. Some of the results follow.
# Test system: Plasmodium falciparum
# Assay: Primary screen in NF54 nanoGlo assay, in single point, at 2uM, 72h; a lower Z score goes with more inhibition
# Format: functional, Erythrocyte
# Settings: timepoint 72 hour
Structure (SMILES),% Inhibition [%],Z score
CC[C@H](C)C(=O)N1CCC2(CCc3nn(CCOC)c(=O)n3CC2)CC1,-2,0.23
N#CCOc1ccc(CNC(=O)COCC(F)(F)F)cc1,-13,2.03
CCc1cc(CN(C)C(=O)c2ccc3sc(C)nc3c2)on1,-2,0.47
N#Cc1ncn(-c2nc(C3CC3)nc3scc(-c4ccccc4)c23)n1,-6,1.07
CO[C@H]1CN(CCOc2ccc(F)cc2)C[C@@H]1O,-12,1.7
Cc1csc(CN(C)C(=O)c2c(CCc3ccccc3)n(Cc3ccccn3)c(C)cc2=O)n1,-5,0.61
CCC[C@H](NC(=O)c1cncnc1N)C(=O)N1CCc2sccc2C1,-5,0.72
CC(C)[C@H](Cn1cncn1)NC(=O)NC1CCOCC1,-10,1.49
Cc1nc(-c2cccs2)sc1C(=O)NCCc1ccc(S(N)(=O)=O)cc1,-20,3.72
COc1ncc(CN(Cc2cccnc2)Cc2ccc3c(c2)OCO3)cn1,25,-3.2
COC[C@@]1(C)CN(Cc2cc(C(=O)O)sc2C)CCO1,-4,0.67
O=C(Nc1cccc(C(F)(F)F)c1)N[C@H]1CC(=O)N(c2ccc3c(c2)OCCO3)C1,10,-1.4
CCOCCC(=O)N1CCC2(CC1)c1nc[nH]c1CCN2C(=O)C1CCC1,29,-3.7
COCCN(Cc1cccs1)C[C@@H](O)Cc1ccccc1,10,-1.53
CN(Cc1ccccc1)c1ncccc1CNc1ccc(C#N)cn1,-8,1.5
CCCNC(=O)c1cnc(-c2cccc(C)c2)nc1N(C)C1CCCCC1,-9,1.73
Cc1ccc(-n2nnnc2N2CCc3sccc3C2)cc1,-13,1.45
O=C(COc1cccnc1)N1CCc2ncnc(N3CC=CC3)c2CC1,-15,1.32
CCc1nn(C)c(Cl)c1CN1CC(OC)CC1c1ncc[nH]1 (configuration not stated),-7,0.66
COc1ccc(Cl)c(N(C)Cc2cnn(C)n2)c1,3,-0.7
Cc1n[nH]c(C)c1CCc1nncn1-c1cccc(F)c1,-11,2.06
C[C@@H](Cn1cncn1)NC(=O)c1oc2ccccc2c1CN(C)C,-18,3.39

Structure (SMILES),% Inhibition [%],Z score
NC(=O)CCn1ccc(NC(=O)c2ccc(-c3ccccc3F)o2)n1,-14,2.44
C[C@H]1CCc2n[nH]c(C(=O)NCCc3cnn[nH]3)c2C1,-4,0.51
CCc1nccn1CCC(=O)N1CCC[C@H](Cc2nc3ccccc3[nH]2)C1,-9,1.15
O=C(N[C@H]1C[C@H](c2ccccc2)C1)N1CCC[C@H](Cn2ccnn2)C1,-10,1.06
CC(C)S(=O)(=O)N(C)C(=O)CCCc1ccccc1,-8,1.1
CCCn1nc(-c2ccco2)nc1CCN1CCCC1=O,-6,0.73
O=C(CCc1ccc(F)cc1)N1CCCC1CC(O)c1ccco1 (configuration not stated),-7,0.74
CC(C1CCCCN1Cc1nccn1C)N1CCCS1(=O)=O (configuration not stated),5,-0.94
COc1ccccc1-c1nc2n(n1)C1(CCCCC1)[C@@H]1CCCC[C@@H]1N2C(=O)c1ccco1,-11,1.84
c1ccc([C@H]2CCN(c3cnccn3)C2)nc1,-5,0.6
CC[C@H](NS(=O)(=O)N1CCC(C)CC1)c1nc(C)c(C)s1,-2,0.26
O=C1NCCCc2[nH]c(-c3nnc4ccccn34)nc21,-18,1.73
OC[C@H]1CN(c2nccc3ccc(F)cc23)CCC1(F)F,-11,1.07
O=C1NCCN(Cc2ccc(F)cc2)C1=O,6,-0.75
COc1cccc(CN2CCc3c(cc(C(=O)Nc4ccc(C)cc4C)n3C)C2)c1,2,-0.34
CC(C)CCC(=O)N1CCOc2ccc([C@@](C)(O)CN(C)C)cc2C1,9,-1.19
CCCNC(=O)N1CCCN(c2nc(C)nc3c2cnn3-c2ccc(C)cc2C)CC1,-8,1.31
Cc1ccsc1-c1ccc(C(=O)N2CC[C@@]3(O)CCNC[C@H]3C2)cc1,-9,1.32
CCOc1ncccc1-c1ccc2ncsc2c1,-14,2.74
Cc1cnc(C(=O)Nc2cccc(-c3ccc4c(c3)CCO4)n2)cn1,-10,1.56
Cc1cccc(C(=O)NCCOc2ccc3c(c2)OCO3)n1,-14,1.27
CC1(C)CC2CN(C(=O)Cc3ccccc3)C(C)(C2)C1 (configuration not stated),-16,2.18

Structure (SMILES),% Inhibition [%],Z score
O=C(N[C@@H]1COCC[C@@H]1OCC1CCC1)c1cncc(Cl)c1,-22,4.26
Cc1ocnc1C(=O)NCCc1c(C)n2c3c(cccc13)CCC2,-16,1.47
C=CCc1cc(C(=O)N2CC[C@H](O)[C@@H](O)C2)ccc1OC,15,-1.94
OC1=Nc2nc(N3CCOCC3)sc2[C@@H](c2cccnc2)C1,34,-3.82
Cc1ccccc1-c1nnc2c3ccccc3nc(N3CCN(C(=O)Cc4ccc(F)cc4)CC3)n12,-8,0.97
CC(C)c1ncn(CC(=O)N2c3ccccc3C[C@@H]2C)n1,-18,2.54
CCNc1ccc(Cl)cc1C(=O)N[C@H](C(=O)NC)C(C)C,-5,0.44
CN1CCCN(CC(=O)NC(c2ccccc2)[C@H]2C[C@@H](O)C2)CC1 (some centres not stated),-10,1.25
Cc1nnc2ccc(N3CCC(n4nc(C5CC5)ccc4=O)CC3)nn12,0,0.06
COc1ccc(Cl)cc1C(O)CNC1CCCn2ccnc21 (configuration not stated),2,-0.34
COc1cccc(CNC(=O)N2CC3(CCC3)[C@H]2c2ccccc2)n1,-7,0.99
CN1CCCC(CNc2nccnc2C#N)C1c1cccs1 (configuration not stated),-4,0.67
COC1(CNC(=O)c2cnnc3ccccc23)CCC(C(F)F)CC1 (configuration not stated),-12,1.39
CC1=C(C)CN(S(=O)(=O)c2cnn3ccccc23)CC1,-9,1.06
CCc1cnc(NC(=O)N2CCC[C@@H]2CO)s1,-7,1.32
CC1CCCCC1NC(=O)c1cccc(-n2cnnn2)c1 (configuration not stated),-2,0.21
CC(C)NC(=O)N(Cc1ccccc1)C[C@H]1CC(c2ccc(N(C)C)cc2)=NO1,-7,1.18
CS(=O)(=O)CCC(=O)NC1(c2ccccc2)CCCC1,9,-1.29
Cc1nc(C(=O)N2CCC[C@H]3CN(C(=O)OC(C)(C)C)C[C@H]32)c(C)o1,-9,1.54
O=C(CNC(=O)C1CCCCC1)NC1CCCCC1,-9,1.42
N#CCC(=O)Nc1ccc(OC(F)(F)F)c(Cl)c1,-12,1.8
O=C(C1=CCN(Cc2ccccc2F)CC1)N1CCN(c2ccccc2F)CC1,-12,1.58

Structure (SMILES),% Inhibition [%],Z score
O=S(=O)(C[C@H]1CCC1(F)F)N1CCCO1,-2,0.14
C[C@@H](C1CC1)N(CC(=O)Nc1ccc(F)cc1F)C1CC1,-12,1.76
Cc1ccc(C)c(NC(=O)N2CCC(N3CCN(Cc4ccccc4)C(=O)C3=O)CC2)c1,-16,1.5
Cc1cc(=O)n(CC(=O)N(C)c2cccc(Cl)c2)c(Nc2ccc(F)c(C)c2)n1,-10,1.28
Fc1ccccc1-c1noc(C2CN(C3CCOCC3)C2)n1,29,-3.33
COCCN1C(=O)[C@@H]2CC[C@H]1CN(c1nc(N(C)C)nc(C)c1C)C2,-8,1.5
CC1(C)Cc2cccc(N3C(=O)N[C@@H](CCF)C3=O)c2O1,-9,0.95
C=CCC[C@@H](CN1CCCC1)Oc1ccc(C(=O)NCC)cn1,2,-0.28
COc1ccc(CNC(=O)C[C@H]2CCCCN(Cc3ccccc3)C2=O)cc1,-8,1.62
Cc1nc2c(c(NCc3cc(-c4ccccc4F)no3)n1)CCNCC2,-9,1.76
Cc1ccncc1C(=O)N1CCC(CCn2c(C)cnc2C2CC2)CC1,-3,0.37
COc1ccccc1C1(CNC(=O)COc2ccc(Cl)cc2)CCOCC1,-35,4.51
Cn1nccc1-c1ccccc1CN1CC(O)(C(F)F)C1,-4,0.55
CCCN1CC2(CCN(C(=O)Cc3ccc(O)cc3)CC2)C[C@H]1C(=O)O,-13,1.71
COC[C@]1(C(=O)Nc2ccc3c(c2)CCCN3C(C)=O)CCN(C(=O)OC(C)(C)C)C1,-2,0.33
Cc1n[nH]cc1CN(C)C(=O)c1ccc(C#N)nc1,-8,0.92
CC(C)N(CC(N)=O)C[C@@]1(C)CC1(Cl)Cl,-13,2.1
Clc1cccc(-c2nc(-c3cccc4ccccc34)[nH]c2-c2ccccc2)c1Cl,3,-0.41
CC(C)O[C@H]1CN(c2ncnc3c2Cc2ccccc2OC3)C[C@@H]1O,-8,1.14
CC(=O)c1cc(C(=O)N(CC2CC2)CC(F)(F)F)ccc1C,4,-0.6
